Drawing on the supplement of paper PMC9446081, this text covers relative growth for 37 molecules.

In all, about 39,000 compounds went through this assay and about 220 (0.56%) showed activity. This is one part of the list.
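Further: static incubation at 37 °C against the wild-type strain, values averaged over two biological replicates.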

The assay relates to Escherichia coli K-12 BW25113. Briefly: relative growth (OD600 normalised to plate interquartile mean) (fraction); higher = less growth inhibition, active = 0.2 or less. The note with it: 50 µM; LB; incubation time: overnight (16-24 h).
As to `COc1ccc(S(=O)(=O)Nc2ccc3c(c2)C(=O)N([C@H](C)CO)C[C@@H](C)[C@H](CN(C)C(=O)Nc2c(C)noc2C)O3)cc1`, the relative growth is inactive: 1.01.

As for `COc1ccc(NC(=O)Nc2ccc3c(c2)C(=O)N([C@H](C)CO)C[C@H](C)[C@@H](CN(C)S(=O)(=O)c2c(C)noc2C)OCCCC[C@H](C)O3)cc1`, the relative growth is inactive: 1.01.

For the molecule `COc1ccc(NC(=O)N(C)C[C@@H]2OCCCC[C@@H](C)Oc3ccc(NC(=O)Nc4ccccc4)cc3C(=O)N([C@@H](C)CO)C[C@H]2C)cc1`, the relative growth was inactive: 1.03.

With `C[C@H](CO)N1C[C@H](C)[C@H](CN(C)C(=O)CCN2CCCCC2)Oc2ncc(C#Cc3ccccn3)cc2C1=O`, the relative growth was inactive: 0.992.

On to `COc1ccc(CN(C)C[C@@H]2OCCCC[C@H](C)Oc3ccc(NS(=O)(=O)c4c(C)noc4C)cc3C(=O)N([C@@H](C)CO)C[C@@H]2C)cc1`, for which the relative growth is inactive: 1.

Consider `Cc1cc(C(=O)Nc2cccc3c2O[C@@H](CN(C)Cc2ccc4c(c2)OCO4)[C@@H](C)CN([C@@H](C)CO)C3=O)n(C)n1`, for which the relative growth was inactive: 0.993.

Take `COCC#Cc1ccc2c(c1)O[C@@H](CN(C)S(=O)(=O)c1ccc(F)cc1)[C@@H](C)CN([C@@H](C)CO)S2(=O)=O`: the relative growth was inactive: 1.02.

Consider `COc1ccc(NC(=O)N(C)C[C@@H]2Oc3c(NC(=O)c4cc(C)nn4C)cccc3C(=O)N([C@@H](C)CO)C[C@@H]2C)cc1`, for which the relative growth is inactive: 1.02.

As to `C=CCN(C(=O)[C@H]1N(c2c(Cl)cccc2CO)C(=O)[C@H]2[C@H](C(=O)O)[C@@H]3C=C[C@@]21O3)c1ccc(OC)cc1`, the relative growth was inactive: 1.03.

As to `CSCCC(NC(=O)C(Cc1c[nH]c2ccccc12)NC(=O)CCNC(=O)OC(C)(C)C)C(=O)NC(CC(=O)O)C(=O)NC(Cc1ccccc1)C(N)=O` (configuration not stated), the relative growth was inactive: 0.9.

With `COc1ccc(NC(=O)N(C)C[C@H]2Oc3cc(C#CCN(C)C)ccc3S(=O)(=O)N([C@@H](C)CO)C[C@@H]2C)cc1`, the relative growth was inactive: 0.96.

Regarding `C[C@@H]1CCCCO[C@@H](CN(C)S(=O)(=O)c2ccccc2)[C@@H](C)CN([C@H](C)CO)C(=O)c2cc(NC(=O)Nc3ccc(C(F)(F)F)cc3)ccc2O1`, the relative growth is inactive: 1.03.

`C[C@@H]1CN([C@H](C)CO)C(=O)Cc2cc(NC(=O)Cc3ccccc3)ccc2O[C@H]1CN(C)S(=O)(=O)c1ccc(F)cc1`: the relative growth was inactive: 0.979.

With `O=C(C[C@H]1C[C@H]2c3cc(NC(=O)C4CCOCC4)ccc3O[C@H]2[C@@H](CO)O1)NCCN1CCCCC1`, the relative growth was inactive: 1.

`Cc1noc(C)c1NC(=O)N(C)C[C@@H]1OCCCC[C@H](C)Oc2ccc(NC(=O)Nc3ccc(F)cc3)cc2C(=O)N([C@H](C)CO)C[C@@H]1C`: the relative growth is inactive: 0.999.

With `CC(C)NC(=O)Nc1ccc2c(c1)C(=O)N([C@@H](C)CO)C[C@H](C)[C@H](CN(C)S(=O)(=O)c1ccccc1)O2`, the relative growth is inactive: 0.967.

In the case of `CC(C)NC(=O)N[C@H]1C=C[C@H](CC(=O)O)O[C@H]1CO`, the relative growth was inactive: 0.983.

Regarding `Cc1noc(C)c1NC(=O)N(C)C[C@H]1OCCCC[C@@H](C)Oc2ccc(NS(=O)(=O)c3ccc(F)cc3)cc2C(=O)N([C@H](C)CO)C[C@@H]1C`, the relative growth is inactive: 0.981.

For the molecule `C[C@@H]1CN([C@H](C)CO)C(=O)CCCn2cc(nn2)CO[C@@H]1CN(C)C(=O)Nc1ccc2c(c1)OCO2`, the relative growth was inactive: 1.01.

For `COc1ccc(S(=O)(=O)N(C)C[C@H]2OCCCC[C@H](C)Oc3ccc(NC(=O)Nc4ccccc4)cc3C(=O)N([C@H](C)CO)C[C@H]2C)cc1`, the relative growth is inactive: 1.01.

With `COc1ccc(NC(=O)N(C)C[C@@H]2OCCCC[C@@H](C)Oc3ccc(NC(=O)Nc4ccc(C(F)(F)F)cc4)cc3C(=O)N([C@H](C)CO)C[C@H]2C)cc1`, the relative growth was inactive: 1.02.

As for `O=C(CN1CCOCC1)NCC[C@@H]1CC[C@H](NC(=O)c2ccccc2F)[C@H](CO)O1`, the relative growth is inactive: 0.959.

For `O=C(C[C@@H]1CC[C@@H]2[C@H](COC[C@H](O)CN2Cc2cccc(C(F)(F)F)c2)O1)NCCc1ccncc1`, the relative growth was inactive: 1.01.

As to `CN1C(=O)c2cc(NC(=O)C3CCC3)ccc2OC[C@H]2O[C@H](CC(=O)NCCc3ccncc3)CC[C@H]21`, the relative growth was inactive: 0.979.

`C[C@H](CO)N1C[C@H](C)[C@H](CN(C)S(=O)(=O)c2cn(C)cn2)Oc2ccc(NC(=O)Nc3ccc(F)cc3)cc2C1=O`: the relative growth was inactive: 0.99.

For `Cc1ccc(-c2ccc(OC(=O)c3ccccc3F)cc2)cc1`, the relative growth is inactive: 0.99.

In the case of `COc1ccc(CN(C)C[C@@H]2OCCCC[C@H](C)Oc3ccc(NC(=O)CCC(F)(F)F)cc3C(=O)N([C@@H](C)CO)C[C@H]2C)cc1`, the relative growth is inactive: 1.

On to `CO[C@H](CN(C)S(=O)(=O)c1ccc(C)cc1)[C@@H](C)CN([C@H](C)CO)S(=O)(=O)c1cccc(Cl)c1`, for which the relative growth was inactive: 1.

For the molecule `COc1cccc(CNC(=O)C[C@H]2C=C[C@H](NC(=O)C3CCOCC3)[C@@H](CO)O2)c1`, the relative growth was inactive: 0.984.

`COc1ccccc1C#Cc1ccc2c(c1)O[C@H](CN(C)Cc1ccncc1)[C@@H](C)CN([C@@H](C)CO)S2(=O)=O`: the relative growth is inactive: 1.03.

Take `C[C@@H]1CCCCO[C@@H](CN(C)C(=O)Cc2ccccc2)[C@@H](C)CN([C@H](C)CO)C(=O)c2cc(NS(=O)(=O)c3ccc(F)cc3)ccc2O1`: the relative growth was inactive: 1.01.

As for `C[C@@H]1CCCCO[C@@H](CN(C)C(=O)c2ccccc2)[C@@H](C)CN([C@H](C)CO)C(=O)c2cc(NS(=O)(=O)c3ccc(F)cc3)ccc2O1`, the relative growth was inactive: 1.02.

On to `CCS(=O)(=O)NCC[C@H]1CC[C@H](NC(=O)C2CC2)[C@H](CO)O1`, for which the relative growth was inactive: 0.989.

As for `CN1C(=O)c2cc(NC(=O)c3cnccn3)ccc2OC[C@@H]2O[C@@H](CC(=O)N[C@H]3CCN(Cc4ccccc4)C3)CC[C@H]21`, the relative growth was inactive: 1.

For the molecule `C[C@H]1CN([C@@H](C)CO)C(=O)c2cccc(NC(=O)Nc3ccc(C(F)(F)F)cc3)c2O[C@H]1CN(C)Cc1ccc(Cl)c(Cl)c1`, the relative growth is inactive: 1.03.

In the case of `CCOC(=O)[C@@H](N)Cc1ccccc1`, the relative growth was inactive: 1.02.

Take `CCOC(=O)N(C)C[C@@H]1OCc2cnnn2CCCC(=O)N([C@@H](C)CO)C[C@@H]1C`: the relative growth is inactive: 1.01.
